The numbers were not newly measured in patent publication US9181281B2, “Prodrugs of neuraminidase inhibitors” (priority 2008, dated 2015), which cites them from elsewhere.

The test system of the data set is influenza virus replication. Conditions: cited from earlier work.

Take `CCC(CC)O[C@@H]1C=C(C(=O)O)C[C@H](NC(=N)N)[C@H]1NC(C)=O` [GOC, guanidino oseltamivir carboxylate]: the “potency in tissue culture relative to oseltamivir carboxylate” value is listed as 10 times.
